These results are taken from the supplement of paper PMC11876631.

The data set concerns the target Escherichia coli (laboratory strain). Put plainly: barcode share on antibiotic plates over drug-free plates; higher = less susceptible. How it is done:
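A pool of E. coli strains, each edited to carry one amino-acid change in an essential protein, was grown for 48 h on minimal glucose agar with or without antibiotic; strain barcodes were sequenced; mean of two replicates.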

The mark [1] stands for this setting: antibiotic: carbenicillin, 2× MIC (3.1 µg/mL).
[2] abbreviates: antibiotic: gentamicin, 2× MIC (MIC 0.45 µg/mL).

± gives the standard deviation of the averaged measurements. Laboratory Escherichia coli strains with one amino-acid change in an essential protein, pooled on minimal glucose agar with carbenicillin or gentamicin at twice the control MIC (plus kanamycin and chloramphenicol for the plasmids), 48 h. Fold change of barcode share against drug-free plates; higher = less susceptible. Active = above 20 in both replicates (the paper's putatively resistant). '<' = one read or none on drug, '>' = one read or none on a drug-free plate. Shares are relative, so most strains fall below 1 when a few take over. Listed are strains with at least 15 reads on both drug-free plates, and hits; most hits rest on fewer reference reads. Replicate rank correlation about 0.5. Edits are read from barcodes.

B1: aroB M274Q (protein)
chain: MERIVVTLGERSYPITIASGLFNEPASFLPLKSGEQVMLVTNETLAPLYLDKVRGVLEQAGVNVDSVILPDGEQYKSLAVLDTVFTALLQKPHGRDTTLVALGGGVVGDLTGFAAASYQRGVRFIQVPTTLLSQVDSSVGGKTAVNHPLGKNMIGAFYQPASVVVDLDCLKTLPPRELASGLAEVIKYGIILDGAFFNWLEENLDALLRLDGPAMAYCIRRCCELKAEVVAADERETGLRALLNLGHTFGHAIEAEMGYGNWLHGEAVAAGMVQAARTSERLGQFSSAETQRIITLLKRAGLPVNGPREMSAQAYLPHMLRDKKVLAGEMRLILPLAIGKSEVRSGVSHELVLNAIADCQSA
Regarding B1, the “fold change of barcode share” value under setting [1] came to 0.423 ± 0.055 and the “fold change of barcode share” value under setting [2] worked out at 0.00579 ± 9.5e-05.

B2: aroB M274D (protein)
chain: MERIVVTLGERSYPITIASGLFNEPASFLPLKSGEQVMLVTNETLAPLYLDKVRGVLEQAGVNVDSVILPDGEQYKSLAVLDTVFTALLQKPHGRDTTLVALGGGVVGDLTGFAAASYQRGVRFIQVPTTLLSQVDSSVGGKTAVNHPLGKNMIGAFYQPASVVVDLDCLKTLPPRELASGLAEVIKYGIILDGAFFNWLEENLDALLRLDGPAMAYCIRRCCELKAEVVAADERETGLRALLNLGHTFGHAIEAEMGYGNWLHGEAVAAGMVDAARTSERLGQFSSAETQRIITLLKRAGLPVNGPREMSAQAYLPHMLRDKKVLAGEMRLILPLAIGKSEVRSGVSHELVLNAIADCQSA
Turning to B2, the “fold change of barcode share” value under setting [1] was 40.9 [active].

B3: ligA V560A (protein)
chain: MESIEQQLTELRTTLRHHEYLYHVMDAPEIPDAEYDRLMRELRELETKHPELITPDSPTQRVGAAPLAAFSQIRHEVPMLSLDNVFDEESFLAFNKRVQDRLKNNEKVTWCCELKLDGLAVSILYENGVLVSAATRGDGTTGEDITSNVRTIRAIPLKLHGENIPARLEVRGEVFLPQAGFEKINEDARRTGGKVFANPRNAAAGSLRQLDPRITAKRPLTFFCYGVGVLEGGELPDTHLGRLLQFKKWGLPVSDRVTLCESAEEVLAFYHKVEEDRPTLGFDIDGVVIKVNSLAQQEQLGFVARAPRWAVAFKFPAQEQMTFVRDVEFQVGRTGAITPVARLEPVHVAGVLVSNATLHNADEIERLGLRIGDKVVIRRAGDVIPQVVNVVLSERPEDTREVVFPTHCPVCGSDVERVEGEAVARCTGGLICGAQRKESLKHFVSRRAMDVDGMGDKIIDQLVEKEYVHTPADLFKLTAGKLTGLERMGPKSAQNVVNALEKAKETTFARFLYALGIREVGEATAAGLAAYFGTLEALEAASIEELQKVPDVGIVVASHAHNFFAEESNRNVISELLAEGVHWPAPIVINAEEIDSPFAGKTVVLTGSLSQMSRDDAKARLVELGAKVAGSVSKKTDLVIAGEAAGSKLAKAQELGIEVIDEAEMLRLLGS
For B3, the “fold change of barcode share” value was determined as 0.192 ± 0.057 under setting [1] and 0.0218 ± 0.024 under setting [2].

B4: ligA I289Q (protein)
chain: MESIEQQLTELRTTLRHHEYLYHVMDAPEIPDAEYDRLMRELRELETKHPELITPDSPTQRVGAAPLAAFSQIRHEVPMLSLDNVFDEESFLAFNKRVQDRLKNNEKVTWCCELKLDGLAVSILYENGVLVSAATRGDGTTGEDITSNVRTIRAIPLKLHGENIPARLEVRGEVFLPQAGFEKINEDARRTGGKVFANPRNAAAGSLRQLDPRITAKRPLTFFCYGVGVLEGGELPDTHLGRLLQFKKWGLPVSDRVTLCESAEEVLAFYHKVEEDRPTLGFDIDGVVQKVNSLAQQEQLGFVARAPRWAVAFKFPAQEQMTFVRDVEFQVGRTGAITPVARLEPVHVAGVLVSNATLHNADEIERLGLRIGDKVVIRRAGDVIPQVVNVVLSERPEDTREVVFPTHCPVCGSDVERVEGEAVARCTGGLICGAQRKESLKHFVSRRAMDVDGMGDKIIDQLVEKEYVHTPADLFKLTAGKLTGLERMGPKSAQNVVNALEKAKETTFARFLYALGIREVGEATAAGLAAYFGTLEALEAASIEELQKVPDVGIVVASHVHNFFAEESNRNVISELLAEGVHWPAPIVINAEEIDSPFAGKTVVLTGSLSQMSRDDAKARLVELGAKVAGSVSKKTDLVIAGEAAGSKLAKAQELGIEVIDEAEMLRLLGS
As to B4, the “fold change of barcode share” value by setting is: under setting [1], 0.365 ± 0.064; under setting [2], < 0.0145.

B5: ligA V560W (protein)
chain: MESIEQQLTELRTTLRHHEYLYHVMDAPEIPDAEYDRLMRELRELETKHPELITPDSPTQRVGAAPLAAFSQIRHEVPMLSLDNVFDEESFLAFNKRVQDRLKNNEKVTWCCELKLDGLAVSILYENGVLVSAATRGDGTTGEDITSNVRTIRAIPLKLHGENIPARLEVRGEVFLPQAGFEKINEDARRTGGKVFANPRNAAAGSLRQLDPRITAKRPLTFFCYGVGVLEGGELPDTHLGRLLQFKKWGLPVSDRVTLCESAEEVLAFYHKVEEDRPTLGFDIDGVVIKVNSLAQQEQLGFVARAPRWAVAFKFPAQEQMTFVRDVEFQVGRTGAITPVARLEPVHVAGVLVSNATLHNADEIERLGLRIGDKVVIRRAGDVIPQVVNVVLSERPEDTREVVFPTHCPVCGSDVERVEGEAVARCTGGLICGAQRKESLKHFVSRRAMDVDGMGDKIIDQLVEKEYVHTPADLFKLTAGKLTGLERMGPKSAQNVVNALEKAKETTFARFLYALGIREVGEATAAGLAAYFGTLEALEAASIEELQKVPDVGIVVASHWHNFFAEESNRNVISELLAEGVHWPAPIVINAEEIDSPFAGKTVVLTGSLSQMSRDDAKARLVELGAKVAGSVSKKTDLVIAGEAAGSKLAKAQELGIEVIDEAEMLRLLGS
For B5, the “fold change of barcode share” value is, setting by setting: under setting [1], 0.261 ± 0.17; under setting [2], 0.00698 ± 0.0026.
